Test results reported in US9486506B2 (Novo Nordisk A/S, priority 2011, dated 2016).
For at least one compound, name, drawing or mass did not settle the structure. Numbered stars: 1 amine (or outer) side, 2 acyl side, 3 side chain; on linkers, the order of the positions; unused ones are H or OH. Side chains are listed from the residue outwards. Peptide text beside a SMILES is read from it. * marks the point of attachment. C18 diacid = O=C(O)CCCCCCCCCCCCCCCCC(=O)*; γGlu = O=C(O)[C@H](CCC(=O)[*:2])N[*:1]; AEEA = NCCOCCOCC(=O)O

Assay: Assay (II) ThT fibrillation assay for physical stability
Assay type: physicochemical
Details: pH 7.5

Going from `CC(C)C[C@H](NC(=O)[C@H](CC(N)=O)NC(=O)[C@H](CC(C)C)NC(=O)[C@H](CC(C)C)NC(=O)[C@H](Cc1c[nH]c2ccccc12)NC(=O)[C@H](CCCCNC(=O)CC[C@H](NC(=O)COCCOCCNC(=O)COCCOCCNC(=O)CC[C@H](NC(=O)CCCCCCCCCCCCCCCCC(=O)O)C(=O)O)C(=O)O)NC(=O)[C@@H](NC(=O)[C@H](Cc1ccccc1)NC(=O)[C@H](CCC(=O)O)NC(=O)[C@H](CCC(N)=O)NC(=O)[C@H](C)NC(=O)[C@H](CCCNC(=N)N)NC(=O)[C@H](CCCNC(=N)N)NC(=O)[C@@H](NC(=O)[C@H](CC(=O)O)NC(=O)[C@H](CC(C)C)NC(=O)[C@H](Cc1ccc(O)cc1)NC(=O)[C@H](CCCCN)NC(=O)[C@H](CO)NC(=O)[C@H](Cc1ccc(O)cc1)NC(=O)[C@H](CC(=O)O)NC(=O)[C@H](CO)NC(=O)[C@@H](NC(=O)[C@H](Cc1ccccc1)NC(=O)[C@@H](NC(=O)CNC(=O)[C@H](CCC(N)=O)NC(=O)[C@H](CO)NC(=O)[C@@H](N)Cc1c[nH]cn1)[C@@H](C)O)[C@@H](C)O)[C@@H](C)O)C(C)C)C(=O)O` [Example 37, N^ε24-[(4S)-4-carboxy-4-[[2-[2-[2-[[2-[2-[2-[[(4S)-4-carboxy-4-(17-carboxyheptadecanoylamino)butanoyl]amino]ethoxy]ethoxy]acetyl]amino]ethoxy]ethoxy]acetyl]amino]butanoyl]-[Thr16,Glu21,Lys24,Leu27,Leu29]-Glucagon] (H-HSQGTFTSDYSKYLDTRRAQEFVK([γGlu-AEEA-AEEA-γGlu-C18 diacid])WLLNL-OH) to `CC[C@H](C)[C@H](NC(=O)[C@H](CC(=O)O)NC(=O)[C@H](CC(C)C)NC(=O)[C@H](Cc1ccc(O)cc1)NC(=O)[C@H](CCCCN)NC(=O)[C@H](CO)NC(=O)[C@H](Cc1ccc(O)cc1)NC(=O)[C@H](CC(=O)O)NC(=O)[C@H](CO)NC(=O)[C@@H](NC(=O)[C@H](Cc1ccccc1)NC(=O)[C@@H](NC(=O)CNC(=O)[C@H](CCC(N)=O)NC(=O)[C@H](CO)NC(=O)[C@@H](N)Cc1c[nH]cn1)[C@@H](C)O)[C@@H](C)O)C(=O)N[C@@H](CCCNC(=N)N)C(=O)N[C@@H](CCCNC(=N)N)C(=O)N[C@@H](C)C(=O)N[C@@H](CCC(N)=O)C(=O)N[C@@H](CC(=O)O)C(=O)N[C@@H](Cc1ccccc1)C(=O)N[C@H](C(=O)N[C@@H](CCCCNC(=O)CC[C@H](NC(=O)CC[C@H](NC(=O)COCCOCCNC(=O)COCCOCCNC(=O)CC[C@H](NC(=O)CCCCCCCCCCCCCCCCC(=O)O)C(=O)O)C(=O)O)C(=O)O)C(=O)N[C@@H](Cc1c[nH]c2ccccc12)C(=O)N[C@@H](CC(C)C)C(=O)N[C@@H](CC(C)C)C(=O)N[C@@H](CO)C(=O)N[C@H](C(=O)O)[C@@H](C)O)C(C)C` [Example 11, N^ε24-[(4S)-4-carboxy-4-[[(4S)-4-carboxy-4-[[2-[2-[2-[[2-[2-[2-[[(4S)-4-carboxy-4-(17-carboxyheptadecanoylamino)butanoyl]amino]ethoxy]ethoxy]acetyl]amino]ethoxy]ethoxy]acetyl]amino]butanoyl]amino]butanoyl]-[Ile^16,Lys^24,Leu^27,Ser^28]-Glucagon], the “ThT assay [Lagtime]” value falls from 44 h to 4.3 h (10-fold).

First: CC(C)C[C@H](NC(=O)[C@H](CC(=O)O)NC(=O)[C@H](CC(C)C)NC(=O)[C@H](Cc1ccc(O)cc1)NC(=O)[C@H](CCCNC(=N)N)NC(=O)[C@H](CO)NC(=O)[C@H](Cc1ccc(O)cc1)NC(=O)[C@H](CC(=O)O)NC(=O)[C@H](CO)NC(=O)[C@@H](NC(=O)[C@H](Cc1ccccc1)NC(=O)[C@@H](NC(=O)CNC(=O)[C@H](CCC(N)=O)NC(=O)[C@H](CO)NC(=O)[C@@H](N)Cc1c[nH]cn1)[C@@H](C)O)[C@@H](C)O)C(=O)N[C@@H](CCCNC(=N)N)C(=O)N[C@@H](CCCNC(=N)N)C(=O)N[C@@H](C)C(=O)N[C@@H](CCC(N)=O)C(=O)N[C@@H](CC(=O)O)C(=O)N[C@@H](Cc1ccccc1)C(=O)N[C@H](C(=O)N[C@@H](CCCCNC(=O)CC[C@H](NC(=O)COCCOCCNC(=O)COCCOCCNC(=O)CC[C@H](NC(=O)CC[C@H](NC(=O)CCCCCCCCCCCCCCCCC(=O)O)C(=O)O)C(=O)O)C(=O)O)C(=O)N[C@@H](Cc1c[nH]c2ccccc12)C(=O)N[C@@H](CC(C)C)C(=O)N[C@@H](CC(C)C)C(=O)N[C@@H](CO)C(=O)N[C@H](C(=O)O)[C@@H](C)O)C(C)C [Example 27, N^ε24-[(4S)-4-carboxy-4-[[2-[2-[2-[[2-[2-[2-[[(4S)-4-carboxy-4-[[(4S)-4-carboxy-4-(17-carboxyheptadecanoylamino)butanoyl]amino]butanoyl]amino]ethoxy]ethoxy]acetyl]amino]ethoxy]ethoxy]acetyl]amino]butanoyl]-[Arg^12,Leu^16,Lys^24,Leu^27,Ser^28]-Glucagon] (H-HSQGTFTSDYSRYLDLRRAQDFVK([γGlu-AEEA-AEEA-γGlu-γGlu-C18 diacid])WLLST-OH)
Second: CC(C)C[C@H](NC(=O)[C@H](CC(=O)O)NC(=O)[C@H](CC(C)C)NC(=O)[C@H](Cc1ccc(O)cc1)NC(=O)[C@H](CCCNC(=N)N)NC(=O)[C@H](CO)NC(=O)[C@H](Cc1ccc(O)cc1)NC(=O)[C@H](CC(=O)O)NC(=O)[C@H](CO)NC(=O)[C@@H](NC(=O)[C@H](Cc1ccccc1)NC(=O)[C@@H](NC(=O)CNC(=O)[C@H](CCC(N)=O)NC(=O)[C@H](CO)NC(=O)[C@@H](N)Cc1c[nH]cn1)[C@@H](C)O)[C@@H](C)O)C(=O)N[C@@H](CCCNC(=N)N)C(=O)N[C@@H](CCCNC(=N)N)C(=O)N[C@@H](C)C(=O)N[C@@H](CCC(N)=O)C(=O)N[C@@H](CC(=O)O)C(=O)N[C@@H](Cc1ccccc1)C(=O)N[C@H](C(=O)N[C@@H](CCCCNC(=O)CC[C@H](NC(=O)CC[C@H](NC(=O)COCCOCCNC(=O)COCCOCCNC(=O)CC[C@H](NC(=O)CCCCCCCCCCCCCCCCC(=O)O)C(=O)O)C(=O)O)C(=O)O)C(=O)N[C@@H](Cc1c[nH]c2ccccc12)C(=O)N[C@@H](CC(C)C)C(=O)N[C@@H](CC(C)C)C(=O)N[C@@H](CO)C(=O)N[C@H](C(=O)O)[C@@H](C)O)C(C)C [Example 15, N^ε24-[(4S)-4-carboxy-4-[[(4S)-4-carboxy-4-[[2-[2-[2-[[2-[2-[2-[[(4S)-4-carboxy-4-(17-carboxyheptadecanoylamino)butanoyl]amino]ethoxy]ethoxy]acetyl]amino]ethoxy]ethoxy]acetyl]amino]butanoyl]amino]butanoyl]-[Arg^12,Leu^16,Lys^24,Leu^27,Ser^28]-Glucagon] (H-HSQGTFTSDYSRYLDLRRAQDFVK([γGlu-γGlu-AEEA-AEEA-γGlu-C18 diacid])WLLST-OH)
The “ThT assay [Lagtime]” value of the first is 7.7-fold lower: 3 h for the first, 23 h for the second.

First: CC[C@H](C)[C@H](NC(=O)[C@H](CC(=O)O)NC(=O)[C@H](CC(C)C)NC(=O)[C@H](Cc1ccc(O)cc1)NC(=O)[C@H](CCCCN)NC(=O)[C@H](CO)NC(=O)[C@H](Cc1ccc(O)cc1)NC(=O)[C@H](CC(=O)O)NC(=O)[C@H](CO)NC(=O)[C@@H](NC(=O)[C@H](Cc1ccccc1)NC(=O)[C@@H](NC(=O)CNC(=O)[C@H](CCC(N)=O)NC(=O)[C@H](CO)NC(=O)[C@@H](N)Cc1c[nH]cn1)[C@@H](C)O)[C@@H](C)O)C(=O)N[C@@H](CCCNC(=N)N)C(=O)N[C@@H](CCCNC(=N)N)C(=O)N[C@@H](C)C(=O)N[C@@H](CCC(N)=O)C(=O)N[C@@H](CC(=O)O)C(=O)N[C@@H](Cc1ccccc1)C(=O)N[C@H](C(=O)N[C@@H](CCCCNC(=O)CC[C@H](NC(=O)CC[C@H](NC(=O)CC[C@H](NC(=O)CC[C@H](NC(=O)CCCCCCCCCCCCCCCCC(=O)O)C(=O)O)C(=O)O)C(=O)O)C(=O)O)C(=O)N[C@@H](Cc1c[nH]c2ccccc12)C(=O)N[C@@H](CC(C)C)C(=O)N[C@@H](CC(C)C)C(=O)N[C@@H](CO)C(=O)N[C@H](C(N)=O)[C@@H](C)O)C(C)C [Example 75, N^ε24-[(4S)-4-carboxy-4-[[(4S)-4-carboxy-4-[[(4S)-4-carboxy-4-[[(4S)-4-carboxy-4-(17-carboxyheptadecanoylamino)butanoyl]amino]butanoyl]amino]butanoyl]amino]butanoyl]-[Ile16,Lys24,Leu27,Ser28]-Glucagon amide]
Second: CC(C)C[C@H](NC(=O)[C@H](CC(C)C)NC(=O)[C@H](Cc1c[nH]c2ccccc12)NC(=O)[C@H](CCCCNC(=O)CC[C@H](NC(=O)CC[C@H](NC(=O)COCCOCCNC(=O)COCCOCCNC(=O)CC[C@H](NC(=O)CCCCCCCCCCCCCCCCC(=O)O)C(=O)O)C(=O)O)C(=O)O)NC(=O)[C@@H](NC(=O)[C@H](Cc1ccccc1)NC(=O)[C@H](CC(=O)O)NC(=O)[C@H](CCC(N)=O)NC(=O)[C@H](C)NC(=O)[C@H](CCCNC(=N)N)NC(=O)[C@H](CCCNC(=N)N)NC(=O)[C@H](CC(C)C)NC(=O)[C@H](CC(=O)O)NC(=O)[C@H](CC(C)C)NC(=O)[C@H](Cc1ccc(O)cc1)NC(=O)[C@H](CCCNC(=N)N)NC(=O)[C@H](CO)NC(=O)[C@H](Cc1ccc(O)cc1)NC(=O)[C@H](CC(=O)O)NC(=O)[C@H](CO)NC(=O)[C@@H](NC(=O)[C@H](Cc1ccccc1)NC(=O)[C@@H](NC(=O)CNC(=O)[C@H](CCC(N)=O)NC(=O)[C@H](CO)NC(=O)[C@@H](N)Cc1c[nH]cn1)[C@@H](C)O)[C@@H](C)O)C(C)C)C(=O)NCC(=O)N[C@H](C(=O)O)[C@@H](C)O [Example 88, N^ε24-[(4S)-4-carboxy-4-[[(4S)-4-carboxy-4-[[2-[2-[2-[[2-[2-[2-[[(4S)-4-carboxy-4-(17-carboxyheptadecanoylamino)butanoyl]amino]ethoxy]ethoxy]acetyl]amino]ethoxy]ethoxy]acetyl]amino]butanoyl]amino]butanoyl]-[Arg12,Leu16,Lys24,Leu27,Gly28]-Glucagon] (H-HSQGTFTSDYSRYLDLRRAQDFVK([γGlu-γGlu-AEEA-AEEA-γGlu-C18 diacid])WLLGT-OH)
The “ThT assay [Lagtime]” value of the first is 1.8-fold higher: 45 h for the first, 25.3 h for the second.
